Several values for one entry are separate records, joined by “and”; a condition that tells them apart may be missing. Identical values can stand only once. About 75 (0.02%) of roughly 420,000 compounds were called active. The call rests on the fitted dose curve; in most records, active means well fitted activation curve with a large enough effect; inconclusive means small, poorly fitted or top-dose-only effect; inactive means no such curve, though single readings can be large or run the other way. Only a part is listed here, and it is no random draw. Some compounds were tested as several samples or in several runs, with calls that do not always agree.
Experiment: qHTS for Inducers of the Endoplasmic Reticulum Stress Response (ERSR) in Human Glioma: qHTS; further: nearly all actives have a fitted effect of over 35% in size; on activation: % of control where 0% means no effect
Details: U87-MG GRP78 promoter luciferase reporter, 16 h; activation: stronger effect = higher value
From the text: Primary protein unfolding takes place for many diseases, including diabetes and hypoxia, , and triggers a reaction in the cells called ER stress response (ERSR). ). ERSR is designed as a repair mechanism, but ultimately leads to cell death via apoptosis if conditions triggering protein unfolding persist (1). The molecular clue to ERSR activation is the enhancement of the expression of key molecular chaperones, including the glucose regulated protein (GRP) 78. GRP78 is the main sensor for protein folding and the main actuator of the ERSR.
In a collaboration between the Southern Research Institute and the NIH Chemical Genomics Center, a cell based screen was developed that reliably uses GRP78 as a sensor to identify small molecules as inducers of ERSR. In resting conditions, GRP78 binds proteins and acts as a natural repressor. Once unfolded proteins are present in the ER, GRP78 releases some of the repressors and binds to the unfolded proteins. The release of the repressors executes the ERSR program. Using a human glioma cell line in a miniaturized, luminescent format, a high-throughput screen was developed to identify actuators of the ERSR.
(1) Soboloff, J. and S. A. Berger (2002). "Sustained ER Ca2+ depletion suppresses protein synthesis and induces activation-enhanced cell death in mast cells." J Biol Chem 277(16): 13812-20.
NIH Chemical Genomics Center [NCGC]
NIH Molecular Libraries Probe Centers Network [MLPCN]
Assay Submitter (PI): Maurizio Grimaldi, Southern Research Institute
Stable transfected human glioma cell line, U87-MG, are dispensed at density 1000 cells/well into Greiner white solid bottom 1536-well assay plates. Compounds are transferred via Kalypsys pin tool equipped with 1536-pin array (10nl slotted pins, V&P Scientific, San Diego, CA). The assay plates will be incubated for 16 hours and developed by adding appropriate quantities of the Promega Bright Glo reagent. The plates will be incubated at room temperature for 10 minutes prior to being transferred into a ViewLux high-throughput CCD imager (PerkinElmer), wherein end-point measurements of luminescence are acquired.
For `CNc1ccc2oc(C[C@@H]3OC4(CC[C@@H]3C)O[C@H]([C@@H](C)C(=O)c3ccc[nH]3)[C@H](C)C[C@H]4C)nc2c1C(=O)O` (some centres undefined), the activation was inactive: 7.2% and inactive: 11.7%. In the case of `Cc1ccc2c(Cl)cc(Cl)c(O)c2n1`, the activation is reported as inactive: -5.87%. In the case of `N#C/C(=C\c1ccc(O)c(O)c1)C(=O)NCCCNC(=O)/C(C#N)=C/c1ccc(O)c(O)c1`, the Potency is reported as active: 36.9 µM. For `Clc1ccc(C(c2ccc(Cl)cc2)n2cc[n+](CC(OCc3ccc(Cl)cc3Cl)c3ccc(Cl)cc3Cl)c2)cc1` (centres undefined), the activation was inactive: -11.6% [middle of 4 runs]. For `C/C1=C/C(=O)O[C@@H]2C[C@@H](CC[C@H](C)/C=C\CC1)O[C@@](O)(C1CSC(=O)N1)C2` (some centres undefined), the activation was inactive: -3.78%. In the case of `C/C(O)=C(\C#N)C(=O)Nc1cc(Br)ccc1Br`, the activation is reported as inactive: -0.191% and inactive: -1.45% and inactive: 3.56%. For `O=c1cc(-c2ccc(O)c(O)c2)oc2cc(O)cc(O)c12`, the activation was inactive: 7.7% [middle of 4 runs]. In the case of `COc1ccc(OC)c(C(O)C(C)N)c1` (centres undefined), the activation is reported as inactive: -3.39% and inactive: -2.17%. With `Cc1c(C(=O)c2cccc3ccccc23)c2cccc3c2n1[C@@H](CN1CCOCC1)CO3` the activation was inactive: -6.88%. For `O=C1C2CCN(CC2)C1(CO)CO`, the activation was inactive: -11.8% [middle of 5 runs]. With `CN[C@@H]1C[C@H](c2ccc(Cl)c(Cl)c2)c2ccccc21` the activation was inactive: -8.17%. In the case of `CC(=O)Nc1ccc(OC(=O)N2CCCCC2)cc1`, the activation is reported as inactive: -13.5%. In the case of `CCn1cnc2c(Nc3cccc(Cl)c3)nc(N[C@@H]3CCCC[C@@H]3N)nc21`, the activation is reported as inactive: -14.8%. In the case of `C[C@@H](COc1ccccc1)N(CCCl)Cc1ccccc1`, the activation is reported as inactive: -3.86%. With `C[C@@H]1C(=O)OC2C[C@@]34[C@H]5C[C@@H](C(C)(C)C)[C@@]36C(O)C(=O)O[C@H]6O[C@@]4(C(=O)O5)[C@]21O` (some centres undefined) the activation was inactive: -2.29%. With `CC(=O)[O][Hg][c]1ccccc1` the activation was inactive: -12.8%. With `O=c1[nH]c2ccccc2n1C1CCN(CCCC(c2ccc(F)cc2)c2ccc(F)cc2)CC1` the activation was inactive: -5.78% [middle of 7 runs]. With `CC1=C(O)C(=O)[C@H]2O[C@@H]2C1=O` the activation was inactive: -11.6%. With `Cc1nc2cc(-c3ccccc3)nn2c(C)c1CCC(=O)N1CCC2(CC1)OCCO2` the activation was inactive: -12.3%. With `Nc1cc(Cl)c2nonc2c1[N+](=O)[O-]` the activation was inactive: -15.5%. In the case of `O=C(O)c1ccccc1Nc1cccc(C(F)(F)F)c1`, the activation is reported as inactive: 1.26% [middle of 4 runs]. For `CCCN1CCc2cc(O)cc3c2C1Cc1ccc(O)c(O)c1-3` (centres undefined), the activation was inactive: 0.324%. In the case of `COc1ccc(OC)c([C@H](O)[C@H](C)N)c1`, the activation is reported as inactive: -3.41%. With `CCCCCCCCCCCCCC(=O)O[C@@H]1[C@@H](C)[C@@]2(O)[C@H](C=C(CO)C[C@]3(O)C(=O)C(C)=C[C@@H]23)[C@@H]2C(C)(C)C12OC(C)=O` (some centres undefined) the activation was inactive: 8.75%. In the case of `O=C1/C(=C\c2ccccc2)C[C@@]2(O)[C@H]3Cc4ccc(O)c5c4[C@@]2(CCN3CC2CC2)[C@@H]1O5`, the activation is reported as inactive: -11.9%. With `C[C@@H]1C(=O)O[C@H]2C[C@@]34[C@H]5C[C@@H](C(C)(C)C)[C@]36[C@H](OC(=O)[C@H]6O)O[C@]4(C(=O)O5)[C@]21O` the activation was inactive: -7.36%. For `CN1CCc2cc(O)cc3c2C1Cc1ccc(O)c(O)c1-3` (centres undefined), the activation was inactive: -3.45%. For `CN1CCc2cc(O)cc3c2[C@H]1Cc1ccc(O)c(O)c1-3`, the activation was inactive: 8.03% and inactive: -0.0347% and inactive: -14.7%. For `CN1CC[C@]2(C)c3cc(O)ccc3N(C)[C@@H]12`, the activation was inactive: -4.06%. With `CCn1nc(-c2ccccc2)nc2c(=O)n(C)c(=O)nc1-2` the activation was inactive: -17.2%. For `C=CCN1CC[C@@]23c4c5ccc(O)c4O[C@H]2/C(=N\N=C2/CC[C@@]4(O)[C@H]6Cc7ccc(O)c8c7[C@@]4(CCN6CC=C)[C@@H]2O8)CC[C@]3(O)[C@@H]1C5`, the activation was inactive: -4.75%. In the case of `CC1CC[C@@]2(OC1)O[C@@H]1[C@@H](O)[C@H]3C4CC[C@H]5C[C@@H](O[C@@H]6O[C@H](CO)[C@H](O[C@@H]7O[C@H](CO)[C@@H](O)[C@H](O[C@@H]8OC[C@@H](O)[C@H](O)[C@H]8O)[C@H]7O[C@@H]7O[C@H](CO)[C@@H](O)[C@H](O[C@@H]8O[C@H](CO)[C@@H](O)[C@H](O)[C@H]8O)[C@H]7O)[C@H](O)[C@H]6O)[C@H](O)C[C@]5(C)C4CC[C@]3(C)[C@H]1[C@@H]2C` (some centres undefined), the activation is reported as inactive: -11.7%. In the case of `CC1C(=O)OC2CC34C5CC(C(C)(C)C)C36C(OC(=O)C6O)OC4(C(=O)O5)C21O` (centres undefined), the activation is reported as inactive: -2.37%. In the case of `O=C1C2CC=CCC2C(=O)N1SC(Cl)(Cl)Cl` (centres undefined), the activation is reported as inactive: -12.2%. In the case of `O=C1NCN(c2ccccc2)C12CCN(CCCOc1ccc(F)cc1)CC2`, the activation is reported as inactive: 1.97%. In the case of `N#Cc1c(Cl)c(Cl)c(Cl)c(C#N)c1Cl`, the activation is reported as inactive: -11.6% and inactive: -12.6%. With `C/C=C(/C)C(=O)O[C@H]1C(C)=C2[C@H]([C@@H]1OC(=O)CCCCCCC)[C@@](C)(OC(C)=O)C[C@H](OC(=O)CCC)[C@@]1(O)[C@H]2OC(=O)[C@@]1(C)O` the Potency was active: 0.0165 µM. In the case of `COc1ccc2c(c1)[C@@]13CCCC[C@H]1[C@@H](C2)NCC3`, the activation is reported as inactive: -10.6%. For `CC1(C)C(=O)C=C[C@@]2(C)C1=C(O)C(=O)[C@@]1(C)C2CC[C@@]2(C)C(c3ccoc3)C[C@H]3O[C@@]321` (some centres undefined), the activation was inactive: -12.5%. For `CC1CC[C@@]2(OC1)OC1C(O)C3C4CC[C@H]5CC(O[C@@H]6O[C@@H](CO)[C@H](OC7OC(CO)C(O)C(OC8OCC(O)C(O)[C@H]8O)[C@@H]7O[C@@H]7OC(CO)[C@H](O)[C@@H](O[C@@H]8OC(CO)C(O)C(O)C8O)C7O)C(O)C6O)C(O)C[C@]5(C)C4CC[C@]3(C)C1C2C` (some centres undefined), the activation was inactive: -12.5%. With `F/C(COc1ccc2c(c1)[nH]c1ccccc12)=C1/CN2CCC1CC2` the activation was inactive: -2.04%. In the case of `C[C@]12Cc3cn4c(nc3C=C1CCC1C2CC[C@@]2(C)[C@H]1CC[C@@]2(O)C#N)nc1ccccc14` (some centres undefined), the activation is reported as inactive: -13%. With `C=CCN1CCc2cccc3c2[C@H]1Cc1ccc(O)c(O)c1-3` the activation was inactive: -4.28%. In the case of `CCCCCCCCCCCCCC(=O)OC1C(C)[C@@]2(O)C(C=C(CO)C[C@]3(O)C(=O)C(C)=C[C@H]23)[C@@H]2C(C)(C)[C@]12OC(C)=O` (some centres undefined), the activation is reported as inactive: 4.29%. In the case of `O=C1NC(=O)N(CCc2ccc(F)cc2)C(=O)/C1=C\C=C\c1ccccc1`, the activation is reported as inactive: 7.49%. In the case of `CCCC1COC(Cn2cncn2)(c2ccc(Cl)cc2Cl)O1` (centres undefined), the activation is reported as inactive: -4.94% and inactive: -12.4%. For `CC(=O)C1=C(O)C2C3c4c[nH]c5cccc(c45)CC3C(C)(C)N2C1=O` (centres undefined), the activation was inactive: 3.4%. With `Ic1ccccc1CN[C@@H]1C2CCN(CC2)[C@@H]1C(c1ccccc1)c1ccccc1` the activation was inactive: -3.05%. In the case of `C/C(O)=C(/C#N)C(=O)Nc1cc(Br)ccc1Br`, the activation is reported as inactive: -2.78%. With `CC1=CC(=O)c2c(O)cccc2C1=O` the activation was inactive: -12.5% and inactive: -11.9%. With `O=[N+]([O-])/C=C/c1ccc2c(c1)OCO2` the activation was inactive: -14.6%. In the case of `O=[N+]([O-])c1ccc(Sc2nc3ccccc3o2)c([N+](=O)[O-])c1`, the activation is reported as inactive: -14.1%. With `C[C@@H]1C(=O)O[C@H]2C[C@@]34[C@H]5C[C@@H](C(C)(C)C)[C@]36[C@@H](OC(=O)[C@@H]6O)O[C@@]4(C(=O)O5)[C@]21O` the activation was inactive: -1.54%. For `CCCN1CCc2cc(O)cc3c2[C@H]1Cc1ccc(O)c(O)c1-3`, the activation was inactive: -4.54% and inactive: -11.6% and inactive: -14.5%. In the case of `COC(=O)C1=C(C)NC(C)=C(C(=O)OC)C1c1ccccc1[N+](=O)[O-]`, the activation is reported as inactive: -6.28% [middle of 8 runs]. For `CN1CC[C@@]2(C)c3cc(O)ccc3N(C)[C@@H]12`, the activation was inactive: -5.61% and inactive: -5.77% and inactive: -4.26%. In the case of `CCCCCCCCCCCCCC(=O)O[C@@H]1[C@@H](C)[C@@]2(O)[C@@H](C=C(CO)C[C@@]3(O)C(=O)C(C)=C[C@@H]23)C2C(C)(C)[C@@]21OC(C)=O` (some centres undefined), the activation is reported as inactive: -14%. In the case of `COc1ccc2c(c[n+](C)c3c4cc5c(cc4ccc23)OCO5)c1OC`, the activation is reported as inactive: -11.6% [middle of 4 runs]. With `CNc1ccc2oc(C[C@H]3O[C@@]4(CC[C@H]3C)O[C@H]([C@H](C)C(=O)c3ccc[nH]3)[C@H](C)C[C@H]4C)nc2c1C(=O)O` the activation was inactive: 0.258%. With `O=C1/C(=C/c2ccccc2)C[C@@]2(O)[C@H]3Cc4ccc(O)c5c4[C@@]2(CCN3CC2CC2)C1O5` (some centres undefined) the activation was inactive: -11.9%. In the case of `CN(C)C(=O)Oc1cc(OC(=O)N(C)C)cc(C(O)CNC(C)(C)C)c1` (centres undefined), the activation is reported as inactive: -3.42% and inactive: -1.07% and inactive: 0.439%. For `O=C1/C(=C\c2ccccc2)C[C@@]2(O)[C@H]3Cc4ccc(O)c5c4[C@@]2(CCN3CC2CC2)[C@H]1O5`, the activation was inactive: -11.7%. With `CN1CCC(O)(c2ccccc2)C(C(=O)c2ccccc2)C1` (centres undefined) the activation was inactive: -18.4%. With `CC(C)(c1ccc(OCC2CO2)cc1)c1ccc(OCC2CO2)cc1` (centres undefined) the activation was inactive: -2.74% and inactive: -11.3%. In the case of `CC(COc1ccccc1)N(CCCl)Cc1ccccc1` (centres undefined), the activation is reported as inactive: -2.92% [middle of 5 runs]. For `CCCCCCn1c(N)c(C(=O)NCCN2CCOCC2)c2nc3ccccc3nc21`, the activation was inactive: -15.3%. For `O=c1oc(Cl)c(Cl)c2ccccc12`, the activation was inactive: -3.35% and inactive: -0.931% and inactive: -11.9%. For `O=C1C=C2C(=CCOC2O)O1` (centres undefined), the activation was inactive: -12.5%. In the case of `CN(N=O)c1cc(O)ccc1O`, the activation is reported as inactive: 0.381% and inactive: -13.2%.
Potency means the concentration at half of the fitted maximal effect.
